# Among all 320,000 compounds or so, about 7,600 (2.4%) were called active. The shares of active, inactive and inconclusive entries below differ from those in the screen. Calls follow the shape of the dose curve; as a rule, active = well fitted activation curve with a large enough effect; inconclusive = small, poorly fitted or top-dose-only effect; inactive = no such curve, though single readings can be large or run the other way. No potency is given beside an inconclusive call; the fits are too rough.
# Assay: qHTS Assay for NPC1 Promoter Activators; also: nearly all actives have a fitted effect of over 60% in size
# Settings: Huh7 NPC1 promoter luciferase reporter, 24 h; series mostly up to 9.22 µM
# Procedure, shortened: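 Luminescence read-out of NPC1 promoter-driven luciferase in stably transfected Huh7 cells; compounds delivered in DMSO and left 24 h at 37C, 5% CO2, qHTS titration format.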
# Potency is read from the fitted curve at half-maximal effect; tags tell the direction and shape of the fitted curve.
row,Compound,Potency
1,CCOc1ccc(-c2cc(C(=O)N3CCN(c4ccccn4)CC3)c3ccccc3n2)cc1,"inconclusive [activator, partial curve]"
2,COc1ccc(C(=O)CCc2ccccc2O)c(OC)c1,"inconclusive [activator, single point]"
3,O=C(CCSc1ccccc1)N1CCN(c2ccccc2F)CC1,"inconclusive [activator, partial curve]"
4,CCc1ccc(N=c2c([N+](=O)[O-])nn(-c3ccccc3)n2O)cc1,"inconclusive [activator, full curve]"
5,CC(/C=N/NC(=O)c1nnn(-c2nonc2N)c1C(C)C)=C\c1ccccc1,"inconclusive [activator, single point]"
6,CNS(=O)(=O)c1cccc(C(=O)OCC(=O)c2ccc3c(c2)OCCO3)c1,inactive
7,O=C(NC(=S)Nc1ccc(Cl)cc1)c1ccccc1,"inconclusive [activator, partial curve]"
8,COc1cc(/C=N/NC(=O)c2ccc(N3CCCC3=O)cc2)ccc1O,active: 2.51 µM
9,C=CCOc1ccc(/C=C2\SC(=Nc3cccnc3)NC2=O)cc1,inactive
10,Cc1ccc(Cn2ncc3c(N4CCN(C)CC4)ncnc32)cc1,inactive
11,Cc1ccccc1NC(=O)Nc1ccc2c(c1)OCO2,"inconclusive [activator, partial curve]"
12,CCc1ccc(C(=O)N/N=C/c2ccncc2)s1,inactive
13,O=C1CC(c2cc(-c3ccccc3)no2)C1,"inconclusive [activator, partial curve]"
14,CCCCC(=O)Nc1ccc2c(c1)oc1ccccc12,"inconclusive [activator, single point]"
15,O=C(Nc1ccccc1)OCCOc1ccccc1Br,"inconclusive [activator, partial curve]"
16,COc1cccc(C(=O)Nc2nc3ccc(S(C)(=O)=O)cc3s2)c1,"inconclusive [activator, single point]"
17,Cn1c(CNc2ccc(O)cc2)nc2ccccc21,"inconclusive [activator, single point]"
18,CC(C)(C)Nc1nc2cc([N+](=O)[O-])ccc2o1,inactive
19,CC(C)c1ccc(C(=O)N/N=C/c2cccc(Cl)c2Cl)cc1,"inconclusive [activator, partial curve]"
20,COc1cccc(NC(=O)c2cccc(C)c2[N+](=O)[O-])c1,inactive
21,O=C(COc1ccc2ccccc2c1Br)Nc1cccnc1,"inconclusive [activator, single point]"
22,CC1CCC2C(=O)N(c3cccc(C(=O)Nc4ccccc4Cl)c3)C(=O)C2C1 (centres undefined),inactive
23,Cc1cccc(-c2cc3nc4c(c(NCc5ccco5)n3n2)CCCC4)c1,"inconclusive [activator, single point]"
24,O=C(N/N=C/c1ccccn1)c1ccncc1,"inconclusive [activator, partial curve]"
25,CC1(C)Cc2nc3sc(C(=O)NCCCO)c(N)c3cc2CO1,"inconclusive [activator, single point]"
26,COc1ccc(-c2ccc(NC(=O)c3ccco3)cc2)nn1,"inconclusive [activator, partial curve]"
27,O=C(Nc1ccccc1)Nc1cccc2nsnc12,active: 4.47 µM

row,Compound,Potency
1,O=C(NCCSCc1ccco1)Nc1cccc(Cl)c1,"inconclusive [activator, partial curve]"
2,COc1ccc(C(=O)Nc2cccc(C(=O)N/N=C/c3ccc(OC)cc3OC)c2)cc1,"inconclusive [activator, partial curve]"
3,O=C(Nc1nc2c(F)cccc2s1)C1CC1,"inconclusive [activator, partial curve]"
4,O=C(NCCOc1ccc(F)cc1)C1CCC(=O)N(CCN2CCOCC2)C1 (centres undefined),inactive
5,CCOC(=O)c1cccc(NC(=O)c2cc3ccccc3o2)c1,"inconclusive [activator, full curve]"
6,CCCCN(C(=O)C1CC(=O)N(c2ccc(OC)cc2OC)C1)c1c(N)n(CC(C)C)c(=O)[nH]c1=O (centres undefined),inactive
7,CCCSc1nsc(NC(=O)CC)n1,active: 0.282 µM
8,COc1ccc2nc(N=Nc3ccc(N(C)C)cc3)sc2c1,active: 0.316 µM
9,Cc1cc(C(=O)Nc2ccc(OCc3ccccc3)cc2)c(C)o1,"inconclusive [activator, partial curve]"
10,CNC(=O)c1cc(C(=O)c2ccc(Cl)cc2)c[nH]1,"inconclusive [activator, single point]"
11,Cc1ccc(Oc2cnc3ccccc3n2)cc1,"inconclusive [activator, partial curve]"
12,COc1ccccc1OCC(=O)Nc1ccccn1,"inconclusive [activator, single point]"
13,Fc1cccc(NCc2cn3ccccc3n2)c1,active: 1.78 µM
14,CCOC(=O)CN1C(=O)S/C(=C/c2ccc(N3CCCCC3)o2)C1=O,inactive
15,c1ccc2c(Oc3ccc4c(c3)OCO4)nncc2c1,active: 1.26 µM
16,COc1cc(Cl)c(C)cc1NC(=O)COc1ccccc1[N+](=O)[O-],active: 3.16 µM
17,Cc1noc(C)c1C(=O)Nc1sc(C)c(-c2ccccc2)c1C#N,inactive
18,Cc1ccc(-n2cnc3cc(NCc4cccs4)ccc32)cc1,"inconclusive [activator, partial curve]"
19,Cc1c(NC(=O)Nc2ccc3c(c2)OCO3)cccc1[N+](=O)[O-],active: 3.16 µM
20,CC(=O)c1cccc(NC(=O)c2cnn(-c3ccccc3)c2C)c1,active: 3.16 µM
21,CC(=O)N1CCN(c2ccc(NC(=O)c3ccco3)cc2Cl)CC1,inactive
22,Brc1ccc(/C=N/Nc2ccccn2)cc1,"inconclusive [activator, partial curve]"
23,Cc1ccc(NC(=O)Cc2nnc(SCC(=O)Nc3ccccc3)n2C)cc1,inactive
24,COC(=O)CN1C(=O)S/C(=C/c2cc(C)n(C)c2C)C1=O,active: 3.98 µM
25,Cc1ccc2nc(SCC(=O)c3ccc(O)cc3O)[nH]c2c1,"inconclusive [activator, single point]"
26,C=CCNc1nc(-c2cc3ccccc3o2)cs1,active: 1 µM
27,O=C(N/N=C/c1ccccn1)c1ccccc1,"inconclusive [activator, partial curve]"

row,Compound,Potency
1,CCOc1cccc2sc(N(CCN(CC)CC)C(=O)c3ccc(S(=O)(=O)N4CCCC4)cc3)nc12,"inconclusive [activator, single point]"
2,O=C(Nc1nnc(S(=O)(=O)N2CCOCC2)s1)c1cccc(F)c1,"inconclusive [activator, partial curve]"
3,CC1CCCN(C(=O)COc2ccc3c(c2)OCO3)C1 (centres undefined),"inconclusive [activator, partial curve]"
4,CC(=O)c1ccc(S(=O)(=O)N2CCN(c3nn(C)c(=O)n(C)c3=O)CC2)cc1,inactive
5,Cc1cccc(NC(=O)CN2C(=O)S/C(=C\c3ccc(-c4cccc(C(=O)O)c4C)o3)C2=O)c1,inactive
6,Cc1ccc(C(=O)COC(=O)c2ccc(O)cc2)cc1,"inconclusive [activator, single point]"
7,COC(=O)c1cn[nH]c1NC(=S)Nc1ccccc1C,"inconclusive [activator, partial curve]"
8,Cn1c(=O)c2c(nc(NCc3ccc4c(c3)OCO4)n2C)n(C)c1=O,inactive
9,COc1ccc(Cl)cc1NC(=O)CN(C)C(=O)c1ccc2c(c1)OCCO2,inactive
10,CC(C)CCn1c2ccccc2c2cc(CC(N)=O)ccc21,inactive
11,Oc1csc(Cc2nc(-c3ccc(-c4ccccc4)cc3)cs2)n1,"inconclusive [activator, partial curve]"
12,Fc1cccc(F)c1-c1nc(-c2ccncc2)no1,"inconclusive [activator, partial curve]"
13,Cc1nn(-c2ccc(N3CCCCC3)nn2)c(C)c1CCC(=O)Nc1ccc(F)cc1,"inconclusive [activator, partial curve, poor fit]"
14,Cc1ccccc1NC(=O)CCc1c(C)nn(-c2ccc(N3CCCCC3)nn2)c1C,inactive
15,O=C(CSc1nnc(-c2ccco2)n1Cc1ccccc1)OC1CCCCC1,"inconclusive [activator, single point]"
16,CC(=O)c1ccc(NC(=O)c2ccc3nc(C)sc3c2)cc1,active: 2 µM
17,O=C1c2ccccc2S(=O)(=O)N1CC1CC(c2ccc(Cl)cc2)=NO1 (centres undefined),active: 3.55 µM
18,O=c1nc(Nc2ccccc2)oc2ccccc12,active: 2.82 µM
19,Cc1cc(=O)n2nc(-c3ccc(C(F)(F)F)cc3)sc2n1,"inconclusive [activator, partial curve]"
20,COc1ccccc1OCc1csc(NC(=O)c2ccco2)n1,"inconclusive [activator, partial curve]"
21,CCN(CC)c1ccc(C(=O)OCC(=O)Nc2ccc3[nH]c(=O)[nH]c3c2)cc1,inactive
22,Cc1ccsc1/C=N/NC(=O)c1ccc2ccccc2c1,"inconclusive [activator, partial curve]"
23,O=C(OCCOc1ccccc1)c1n[nH]c2ccccc12,active: 3.55 µM
24,O=C(CSc1nnc(-c2ccccc2Cl)o1)Nc1ccccn1,"inconclusive [activator, partial curve]"
25,C(=C\c1ccccc1)/C=N/Nc1nc2ccccc2[nH]1,active: 3.16 µM

# Reference: PubChem BioAssay AID485313 (National Center for Advancing Translational Sciences (NCATS), 2010)
